Reference: the supplement of paper PMC9135407
Several values for one entry are separate records, joined by “and”; a condition that tells them apart may be missing. Equal values may be shown once. Where a name gives a salt, the structure may show the parent alone. Among all 5,800 compounds or so, about 620 (11%) showed activity.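 Rule for the calls: active = score above a cut-off or among the top three wells of a plate; in these data no inactive exceeds 0.85.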 Only a part is listed here, and it is no random draw.

System: primary human hepatic stellate cells (donor 1)
Experiment: scaled lipid accumulation score (0 = DMSO-like, 1 = nortriptyline-like); higher = stronger HSC inactivation (lipid re-accumulation), active = hit call of the paper
Details: 48 h
[1] = library stock concentration: 10 mM
[2] = library stock concentration: 3.33 mM
[3] = library stock concentration: 1 mM

With `CNCCCN1c2ccccc2CCc2ccccc21` [Desipramine hydrochloride] the “scaled lipid accumulation score” value (library stock concentration: 6.6 mM) was inactive: 0.471 and the “scaled lipid accumulation score” value [1] was inactive: 0.667.
With `CC(C)(C(=O)NCC(F)(F)C(F)(F)F)C(=O)N[C@@H]1C(=O)Nc2ccccc2-c2ccccc21` the “scaled lipid accumulation score” value [2] was inactive: ≤ 0 and the “scaled lipid accumulation score” value [1] was inactive: ≤ 0.
For `O=C(O)CCNC(=O)c1ccc(/N=N/c2ccc(O)c(C(=O)O)c2)cc1`, the “scaled lipid accumulation score” value [1] was inactive: ≤ 0.
In the case of `O=C(O)CCNC(=O)c1ccc(/N=N/c2ccc(O)c(C(=O)O)c2)cc1` [Balsalazide Sodium], the “scaled lipid accumulation score” value is reported as inactive: 0.061.
For `COc1cc(Nc2ncc(F)c(Nc3ccc4c(n3)NC(=O)C(C)(C)O4)n2)cc(OC)c1OC.O=S(=O)(O)c1ccccc1`, the “scaled lipid accumulation score” value [1] was active: 0.882.
With `CCOc1cc(N)c(Cl)cc1C(=O)NCC1CN(Cc2ccc(F)cc2)CCO1` (stereo unspecified) the “scaled lipid accumulation score” value [1] was inactive: ≤ 0.
With `CCOc1cc(N)c(Cl)cc1C(=O)NCC1CN(Cc2ccc(F)cc2)CCO1` (stereo unspecified) [Mosapride Citrate] the “scaled lipid accumulation score” value [2] was inactive: 0.016 and the “scaled lipid accumulation score” value [1] was inactive: 0.048.
In the case of `CCC(C)n1ncn(-c2ccc(N3CCN(c4ccc(OCC5COC(Cn6cncn6)(c6ccc(Cl)cc6Cl)O5)cc4)CC3)cc2)c1=O` (stereo unspecified) [Itraconazole], the “scaled lipid accumulation score” value (library stock concentration: 2.8 mM) is reported as inactive: ≤ 0, the “scaled lipid accumulation score” value [2] is reported as inactive: 0.492 and the “scaled lipid accumulation score” value [1] is reported as inactive: 0.522.
In the case of `Cc1cccc(Nc2ccccc2C(=O)O)c1C`, the “scaled lipid accumulation score” value [1] is reported as inactive: ≤ 0.
For `Cc1cccc(Nc2ccccc2C(=O)O)c1C` [Mefenamic acid], the “scaled lipid accumulation score” value was inactive: ≤ 0, the “scaled lipid accumulation score” value (library stock concentration: 8.3 mM) was inactive: ≤ 0 and the “scaled lipid accumulation score” value [1] was inactive: 0.083.
With `Cc1cccc(Nc2ccccc2C(=O)O)c1C` [Mefenamic Acid] the “scaled lipid accumulation score” value [2] was inactive: ≤ 0 and the “scaled lipid accumulation score” value [1] was inactive: ≤ -0.001.
For `CCCCC[C@@H](O)/C=C/[C@H]1C(=O)C[C@H](O)[C@@H]1C/C=C\CCCC(=O)O` [15(R)-Prostaglandin D2], the “scaled lipid accumulation score” value [3] was inactive: ≤ 0.
With `C[n+]1ccccc1/C=N/O` [Pralidoxime chloride] the “scaled lipid accumulation score” value was inactive: ≤ 0 and the “scaled lipid accumulation score” value (library stock concentration: 11.6 mM) was inactive: ≤ 0.
For `C[n+]1ccccc1/C=N/O`, the “scaled lipid accumulation score” value [1] was inactive: ≤ 0.
For `CCCCCCCCCCCCCCCC(=O)NC(CO)CO` [Palmitoyl Serinol], the “scaled lipid accumulation score” value [3] was inactive: 0.026.
`CCCCC/C=C\C/C=C\C/C=C\C/C=C\CCCCN1C(=O)C=CC1=O` [N-Arachidonyl Maleimide] was tested, and the “scaled lipid accumulation score” value [3] was inactive: ≤ 0.
`Cl[H].CN1CC\C(=C(/c2c(cccc2)C=C3)\c(cccc4)c34)\CC1` [Cyproheptadine hydrochloride] was tested, and the “scaled lipid accumulation score” value [1] was active: 1.04.
With `CC(N)C(=O)OC(C)(C)Cc1ccc(Cl)cc1` (stereo unspecified) [Alaproclate hydrochloride] the “scaled lipid accumulation score” value [1] was inactive: 0.774.
For `CC(N)C(=O)OC(C)(C)Cc1ccc(Cl)cc1` (stereo unspecified) [Alaproclate], the “scaled lipid accumulation score” value [1] was inactive: 0.165.
For `CC(NC(=O)Cc1cc(F)cc(F)c1)C(=O)NC1C(=O)N(C)c2ccccc2-c2ccccc21` (stereo unspecified), the “scaled lipid accumulation score” value [2] was inactive: ≤ 0 and the “scaled lipid accumulation score” value [1] was inactive: 0.235.
With `CN(CCOc1ccc(C[C@H](Nc2ccccc2C(=O)c2ccccc2)C(=O)O)cc1)c1ccccn1` the “scaled lipid accumulation score” value [1] was inactive: 0.02.
With `CCN(CC)CCNC(=O)COc1ccc(OC)cc1` [Mefexamide] the “scaled lipid accumulation score” value (library stock concentration: 6.3 mM) was inactive: 0.018 and the “scaled lipid accumulation score” value [1] was inactive: ≤ 0.
`CCN(CC)CCNC(=O)COc1ccc(OC)cc1` [Mefexamide hydrochloride] was tested, and the “scaled lipid accumulation score” value was inactive: ≤ 0.
`C=CCn1c(=O)c2cnc(Nc3ccc(N4CCN(C)CC4)cc3)nc2n1-c1cccc(C(C)(C)O)n1` was tested, and the “scaled lipid accumulation score” value (library stock concentration: 80 uM) was inactive: ≤ -0.009, the “scaled lipid accumulation score” value (library stock concentration: 400 uM) was inactive: 0.06 and the “scaled lipid accumulation score” value (library stock concentration: 2 mM) was inactive: 0.137. For the same molecule, the “scaled lipid accumulation score” value [2] was inactive: ≤ 0 and the “scaled lipid accumulation score” value [1] was inactive: ≤ 0 and inactive: 0.188.
In the case of `CCOc1ccc(NC(=O)CC(C)O)cc1` (stereo unspecified), the “scaled lipid accumulation score” value [1] is reported as inactive: ≤ 0.
For `Clc1ccc(C(Cn2ccnc2)OCc2csc3c(Cl)cccc23)c(Cl)c1` (stereo unspecified) [Sertaconazole nitrate], the “scaled lipid accumulation score” value was inactive: ≤ 0, the “scaled lipid accumulation score” value [2] was inactive: ≤ 0 and the “scaled lipid accumulation score” value [1] was inactive: 0.479.
For `CC(=O)OCC1=C(C(=O)O)N2C(=O)[C@@H](NC(=O)Cc3cccs3)[C@H]2SC1` [Cephalothin sodium salt], the “scaled lipid accumulation score” value was inactive: ≤ 0.
`CC(=O)OCC1=C(C(=O)O)N2C(=O)[C@@H](NC(=O)Cc3cccs3)[C@H]2SC1` [Cephalothin sodium] was tested, and the “scaled lipid accumulation score” value (library stock concentration: 4.8 mM) was inactive: ≤ -0.001 and the “scaled lipid accumulation score” value [1] was inactive: ≤ 0 and inactive: 0.057.
In the case of `O=C(Nc1cccc2cccnc12)c1ccc(N2C(=O)[C@@H]3[C@H](C2=O)[C@@H]2C=C[C@H]3C2)cc1` [endo-IWR 1], the “scaled lipid accumulation score” value [1] is reported as inactive: ≤ -0.001.
For `CN(C)CCCN1c2ccccc2CCc2ccc(Cl)cc21.Cl` [Clomipramine HCl], the “scaled lipid accumulation score” value [1] was active: 0.83.
For `CC1(C)S[C@@H]2[C@H](NC(=O)Cc3ccccc3)C(=O)N2[C@H]1C(=O)O` [Benzathine benzylpenicillin], the “scaled lipid accumulation score” value was inactive: ≤ 0.
`CC1(C)S[C@@H]2[C@H](NC(=O)Cc3ccccc3)C(=O)N2[C@H]1C(=O)O` [Benzylpenicillin sodium] was tested, and the “scaled lipid accumulation score” value was inactive: ≤ 0.
`CC1(C)S[C@@H]2[C@H](NC(=O)Cc3ccccc3)C(=O)N2[C@H]1C(=O)O` [Benzyl penicillin potassium] was tested, and the “scaled lipid accumulation score” value [1] was inactive: ≤ 0.
In the case of `CC1(C)S[C@@H]2[C@H](NC(=O)Cc3ccccc3)C(=O)N2[C@H]1C(=O)O` [Penicillin g potassium], the “scaled lipid accumulation score” value (library stock concentration: 5.4 mM) is reported as inactive: ≤ -0.001.
For `CC1(C)S[C@@H]2[C@H](NC(=O)Cc3ccccc3)C(=O)N2[C@H]1C(=O)O` [Pfizerpen], the “scaled lipid accumulation score” value [1] was inactive: ≤ 0.
In the case of `CC1(C)S[C@@H]2[C@H](NC(=O)Cc3ccccc3)C(=O)N2[C@H]1C(=O)O` [Penicillin G Sodium], the “scaled lipid accumulation score” value [2] is reported as inactive: ≤ 0 and the “scaled lipid accumulation score” value [1] is reported as inactive: ≤ -0.001.
In the case of `CCCCc1nc(Cl)c(CO)n1Cc1ccc(-c2ccccc2-c2nnn[nH]2)cc1` [LOSARTAN Potassium], the “scaled lipid accumulation score” value [1] is reported as inactive: ≤ 0.
For `CCCCc1nc(Cl)c(CO)n1Cc1ccc(-c2ccccc2-c2nnn[nH]2)cc1` [Losartan], the “scaled lipid accumulation score” value (library stock concentration: 4.7 mM) was inactive: ≤ 0 and the “scaled lipid accumulation score” value [1] was inactive: ≤ -0.027.
For `CCCCc1nc(Cl)c(CO)n1Cc1ccc(-c2ccccc2-c2nnn[nH]2)cc1` [Losartan Potassium (DuP 753)], the “scaled lipid accumulation score” value [2] was inactive: ≤ 0 and the “scaled lipid accumulation score” value [1] was inactive: ≤ 0.
`COc1cc(Nc2ncc3ccn(-c4cccc(CCC#N)c4)c3n2)cc(OC)c1OC` [Keratinocyte Differentiation Inducer] was tested, and the “scaled lipid accumulation score” value [2] was inactive: 0.501 and inactive: ≤ 0.
